B1: chr5:24309113:24309114:-_ENSMUSG00000028945_ENSMUST00000030787|mus_hu|motif|central (ssRNA)
RNA: GGGAGUUCUACAGUCCGACGAUCUUUUAUUUACAAGUAUACAUUUAACACAAUGAAAUAAACACUGAUAUACUGAAGCCGGGUUAAUAGUAGUGUAACAAUAUGCAUCAUUUUGAUGAUUACAUUAUUUUAAACAACAAACUACAACAGAGGAUUGAGCAUCA
B2: 155317593_155319135_8075_CDS_ENSG00000116539_ENST00000392403|human|control|control (ssRNA)
RNA: GGGAGUUCUACAGUCCGACGAUCAAUCUCAUCAAUCUGGGCUGAUGCCUCAUGCCGGGCAUUGUAAUAGGCCUUUCGUAGACGACAAACAUCUCUCCCAACUGGGGAUUUACGCCCAUAGUACUUCUCAGCAUUCCGAAAGACCAACAGAGGAUUGAGCAUCA
B3: 63970054_63970174_7087_CDS_ENSG00000103657_ENST00000443617|human|control|control (ssRNA)
RNA: GGGAGUUCUACAGUCCGACGAUCUUCUGCUUCAUCCCAUUGGACCUUGGCAGACGUGCUGCCCUCUUUGACCACUCCCAGCAGCGUGGCAUGGCGCCCAGUUUGCUUGUGAACACACCGACCUCCAACUCUAAGACCAGCAUCCAACAGAGGAUUGAGCAUCA
B4: 35061023_35061143_2183_CDS_ENSG00000165280_ENST00000358901|human|control|control (ssRNA)
RNA: GGGAGUUCUACAGUCCGACGAUCCAUAGUAACUGCUAGAGAGUUCAUGACCUCGGCAUCAAUGGUCUCAUCCUCUAGGUCAAUGAGAUCCAUCUUCUUGCGGAUGGCUUGCAGAGCAGCCUCUGAGCACAGGGCUGCUAAGUCCAACAGAGGAUUGAGCAUCA
B5: chr19:16452684:16452685:+_ENSMUSG00000024639_ENSMUST00000025541|perfect_dup|FALSE|FALSE (ssRNA)
RNA: GGGAGUUCUACAGUCCGACGAUCGUUUAAGAACAGAAUAACCGAGGAGUUCUGGAACCAGGGGUAUGUGAUAAUUGUUCUAAAGAGAGCCUUGCUUUCCUCCAUUCGGUUCUCAUUGUCUGACUCCACGAGAACUUGAUCAUACAACAGAGGAUUGAGCAUCA
B6: chr1:39494564:39494565:+_ENSG00000168653_ENST00000372967|hu_hu|hu_hu_hu_mus_True|28_108 (ssRNA)
RNA: GGGAGUUCUACAGUCCGACGAUCAUGUGCACGUCUCAUCGUUUUGUACCGAAGCAAGCACUCUUCGAAGUCAUCGAACUCUAUCUUGCACUCCUUUUUCGCCCGGGUAUAACCGAUCCCGUGUGCACACUCUAUCCACUCUUUCAACAGAGGAUUGAGCAUCA
B7: 23046642_23048043_1795_3pUTR_ENSMUSG00000026775_ENSMUST00000028117|mouse|control|control (ssRNA)
RNA: GGGAGUUCUACAGUCCGACGAUCUGGUAACCAUUUCUUUUCCAUCAACUGCUGCCUUUAGUGCAGCUUGGUUCACAAGAUUCUCCAACUCUGCUCCAGAGAACCCAACAGUCCCUCGAGCUAUGAUUUCUGGAUCAACAGAUUCAACAGAGGAUUGAGCAUCA
B8: 31357273_31357393_181_CDS_ENSMUSG00000013629_ENSMUST00000013773|mouse|control|control (ssRNA)
RNA: GGGAGUUCUACAGUCCGACGAUCCGACACAGCGGCCCCAAAGGGCCGGCCCUGCAGCACCGACCCGUCCUCCAACACCAGGGCCGCCAUCGGGUCGGAGCUGAGACAGGGCAAGCACGCAGACGCGGGAGGCGCGGCGAGCCCCAACAGAGGAUUGAGCAUCA
B9: chr1:46159212:46159213:+_ENSG00000159596_ENST00000372025|hu_mus|hu_hu_hu_mus_True|28_28 (ssRNA)
RNA: GGGAGUUCUACAGUCCGACGAUCUCUGAUCCCUCCCAAGAAAGCUAGGAAACCGGCUCCAUAAGCCAUCUGAGUGAAAGCUAGGACGGGGAUAUAAGACUUUGUUAUCAGCAUGACAAGUGGGGGAGCAGUAAAGGGGAUUAACAACAGAGGAUUGAGCAUCA
B10: chr1:215793774:215793775:+_ENSG00000136636_ENST00000259154|hu_mus|FALSE|FALSE (ssRNA)
RNA: GGGAGUUCUACAGUCCGACGAUCCAGAUAGGGAACUUUCUUUCUUCCAAGAAAUCCUCCUGCUUCAAACCCUUUCUUUCGGAACUCCACUUUAUGCUCAUUUUCAUCCUCUGCUGACCUUUUCUUGGGCUCUGACAAACCCUCCAACAGAGGAUUGAGCAUCA
B11: chr17:62495991:62495992:-_ENSG00000108654_ENST00000581693|hu_hu|motif|central (ssRNA)
RNA: GGGAGUUCUACAGUCCGACGAUCCACCAUAAUUACUGCUGCACUGCAGUCAUUUCUGCAAUUCCCAUGUUUCUUAAAUAACGGUCUUGUCAGAUAACACACAAUAUAAAGAGCAAUUAUGAAAAACAGACAUUUACAUAUACUCAACAGAGGAUUGAGCAUCA
B12: 93279883_93281176_729_CDS_ENSMUSG00000026309_ENSMUST00000027534|mouse|control|control (ssRNA)
RNA: GGGAGUUCUACAGUCCGACGAUCACUAUCUCCAAGGUUGGCGAUAUACAGGAUGUUGUCCACAGCCAGGACACACGUGGCAGUGGACCCGUCUUUCCAGGCAGGCUUCUGGCUUGAAGCCUGUUUCAGGAACUCUUCAUCGGUCAACAGAGGAUUGAGCAUCA
B13: 10008422_10008542_665_CDS_ENSG00000115750_ENST00000263663|human|control|control (ssRNA)
RNA: GGGAGUUCUACAGUCCGACGAUCGCUGACGGGGAAAGGUUUUCGAGUGUGGAUGUCAGACUGAGACUCCGCUCCACUUUCAAGAAAAGGAGGACAGCUGACAUCACUUAGCAGCUCAGGCUCACUAGCCCAGUCUGAAUGACUCAACAGAGGAUUGAGCAUCA
B14: chr14:102368134:102368135:+_ENSG00000078304_ENST00000445439|hu_hu|hu_hu_hu_mus_True|88_108 (ssRNA)
RNA: GGGAGUUCUACAGUCCGACGAUCAAGGGGUUCCAUGAUCUUCACAAAUUCUGAUGGUUCAAUUACAUCUAAAAUUUCUUCUAAUUCAUUUAAGAACAUUACUUCUUUUGGACUGUGAGUCUUUGGCCAGUAUUUGAGAAGUGCCAACAGAGGAUUGAGCAUCA
B15: 73577691_73577811_2190_CDS_ENSG00000119707_ENST00000261973|human|control|control (ssRNA)
RNA: GGGAGUUCUACAGUCCGACGAUCAUCUGGUGAGUUUUCAUGAGGAAUAAUAAUACCACAGGGAGACUCAUCCCCAGGAGUGUUAGGUGUUGCAUUGCCACUGGCAGAGGAAACAGAUGGAGCAGAGCUGAUGGGCCUCAGAGUCAACAGAGGAUUGAGCAUCA
B16: chr10:70928335:70928336:+_ENSG00000122958_ENST00000263559|hu_hu|FALSE|FALSE (ssRNA)
RNA: GGGAGUUCUACAGUCCGACGAUCCCAUAAAAUUAUCUCCUGCUGUUUGAAGUACCUCCGGUCUUCCUCAUCAACAAGCACUAAAUUCAAAAAGUACCUUACUGAAAAUUUUUUGUUCACAUCUCUCAUUGUUGGAGUUGGGUCCAACAGAGGAUUGAGCAUCA
B17: chr1:120503909:120503910:+_ENSMUSG00000064302_ENSMUST00000049404|mus_mus|FALSE|FALSE (ssRNA)
RNA: GGGAGUUCUACAGUCCGACGAUCCUUUCUCCAUGUCAUGUAGAAGACAGGAGGGGGUCUUGUCCCAUCUGACCAUACUCUAAGAACAUAAGCAUAAAGAACACACAGCAAUACCCCAAACCACCCCCAAGUCUGUAUGGACUGCAACAGAGGAUUGAGCAUCA
B18: chr19:8913615:8913616:-_ENSMUSG00000071658_ENSMUST00000096259|mus_hu|mus_mus_mus_hu_False|18_58 (ssRNA)
RNA: GGGAGUUCUACAGUCCGACGAUCAGGGUACCAAAACCUUCUGCCUGAAAUGGGUGCCCCACCCAGUAGGGAGUUGCAGCUAAAAAUAUCUGAUGCAGAAGCAGUGACUAUACGAAAGGUCACUAGAGGGGAGGGCCAGGCCAGCAACAGAGGAUUGAGCAUCA
B19: chr18:25531195:25531196:-_ENSG00000170558_ENST00000399380|hu_hu|motif|central (ssRNA)
RNA: GGGAGUUCUACAGUCCGACGAUCUUUCUUUCCUUUCCUUUUUUUUUUUUUUUGGUACAAAUUAUGUAAAACAUUUGUGCGGAGAACUUUUCUCCCUCCCCAAACCAAAAAGAAAAUAAAAAAUAAAAAAAUUAAAAAAAUUAACAACAGAGGAUUGAGCAUCA
B20: 55057286_55057406_3720_CDS_ENSMUSG00000052713_ENSMUST00000064763|mouse|control|control (ssRNA)
RNA: GGGAGUUCUACAGUCCGACGAUCAUAAAGUGACUGAGCCAGGGCAGGGUGUCUCUGGGUGAUGACUGACUGGUGCUGAGGCUGCAGGGGUGCAGAAGUAUGGUCUACUUUCUUGGACUCCAACUGUUCCGCCUUGUCUUUCUUCAACAGAGGAUUGAGCAUCA
B21: chrX:102931482:102931483:-_ENSG00000123562_ENST00000441076|hu_hu|motif|central (ssRNA)
RNA: GGGAGUUCUACAGUCCGACGAUCAAUUGCAUCUACAUUUUUCUUGGCAGGGAGUUGAAACAGCUGCUUCUGCCUGGUAACGGAGUCCCAGUCCUCAACAAGCCAUGGUUUUAAUUCUUCAGGAAUCUUCACUUUAACCUCCAUCAACAGAGGAUUGAGCAUCA
B22: chr11:87793471:87793472:-_ENSMUSG00000020483_ENSMUST00000020775|mus_hu|motif|central (ssRNA)
RNA: GGGAGUUCUACAGUCCGACGAUCUGGACUUGAAAAUAAAAGAAUAAGCUGGAUCCCCCACCCCCCCACAUUGUCAACCCGGCACGAGAGUUUUGAAGGCGACUCAUGAAAAUCAGCAGCUCAAACGGCAAUGACCACCCCACCCAACAGAGGAUUGAGCAUCA

The other results are listed elsewhere or left out.

This assay has as its target T1, UNK ZnF1-3 (human, UniProt Q9C0B0 31-174).
T1 sequence: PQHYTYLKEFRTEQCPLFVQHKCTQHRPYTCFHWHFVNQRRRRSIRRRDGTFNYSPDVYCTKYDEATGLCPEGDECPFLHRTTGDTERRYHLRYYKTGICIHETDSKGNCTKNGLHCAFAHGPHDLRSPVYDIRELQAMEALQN
The experiment in a line: nsRBNS (natural sequence RNA bind-n-seq); RBNS binding buffer (assumed for nsRBNS): 25 mM Tris pH 7.5, 150 mM KCl, 3 mM MgCl2, 0.01% Triton X-100, 500 ug/ml BSA, 20 U/ml SUPERase-In, 4 C; UNK is unkempt and MSI1 is Musashi-1; names of the RNAs are library labels; protein concentration not given here; high values mean tight binding.
B1 had a binding signal of 0.761 enrichment R.

In turn, B2 showed a binding signal of 0.956 enrichment R.

On to B3, for which the binding signal amounted to 0.943 enrichment R.

Turning to B4, the binding signal was determined as 0.431 enrichment R.

The molecule B5 yielded a binding signal of 0.726 enrichment R.

B6 came in with a binding signal of 0.401 enrichment R.

In the case of B7, the binding signal is 0.69 enrichment R.

Turning to B8, the binding signal amounted to 0.455 enrichment R.

Take B9: the binding signal was 1.27 enrichment R.

The molecule B10 showed a binding signal of 0.513 enrichment R.

B11 registered a binding signal of 0.746 enrichment R.

The molecule B12 displayed a binding signal of 0.336 enrichment R.

In the case of B13, the binding signal is 0.627 enrichment R.

B14: the binding signal is 0.799 enrichment R.

B15 displayed a binding signal of 1.63 enrichment R.

In turn, B16 showed a binding signal of 1.13 enrichment R.

As to B17, the binding signal stood at 1.37 enrichment R.

B18 showed a binding signal of 1.59 enrichment R.

In the case of B19, the binding signal amounted to 2.43 enrichment R.

Turning to B20, the binding signal turned out to be 0.915 enrichment R.

In turn, B21 yielded a binding signal of 1 enrichment R.

In turn, B22 registered a binding signal of 2.46 enrichment R.

The values are drawn from PMC12136788.
